From PubChem BioAssay AID360 (National Center for Advancing Translational Sciences (NCATS), 2006)
The whole screen tested about 48,000 compounds, of which about 550 (1.1%) were called active. Inconclusive results (about 4%) are left out. Cut-off read from the data, not from the text of the source: active = potency below about 15 µM; inconclusive = mostly about 16 µM to 33 µM; inactive = weaker than that. The list shows a part of the results.

target: Lysosomal acid glucosylceramidase (Homo sapiens) (UniProt P04062); assay: Glucocerebrosidase; conditions: purified enzyme, resorufin glucoside fluorescence (screen aimed at inhibitors), 20 min;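 note: the screen sought inhibitors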
UniProt P04062, sequence (P04062 whole entry, looked up): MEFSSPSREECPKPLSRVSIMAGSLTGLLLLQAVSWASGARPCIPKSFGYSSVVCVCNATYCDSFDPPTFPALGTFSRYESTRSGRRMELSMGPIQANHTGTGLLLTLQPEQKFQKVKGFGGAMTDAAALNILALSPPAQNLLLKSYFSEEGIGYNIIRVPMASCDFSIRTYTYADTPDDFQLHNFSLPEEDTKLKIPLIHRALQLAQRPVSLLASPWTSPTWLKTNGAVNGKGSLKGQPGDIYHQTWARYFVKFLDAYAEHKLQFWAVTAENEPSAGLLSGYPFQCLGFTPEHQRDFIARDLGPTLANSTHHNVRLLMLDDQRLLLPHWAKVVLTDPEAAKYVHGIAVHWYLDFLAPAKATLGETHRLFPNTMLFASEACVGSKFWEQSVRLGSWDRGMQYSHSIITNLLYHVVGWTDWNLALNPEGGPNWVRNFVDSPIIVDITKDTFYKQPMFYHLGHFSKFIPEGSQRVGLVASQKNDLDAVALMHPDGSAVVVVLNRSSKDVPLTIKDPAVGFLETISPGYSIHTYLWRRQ
Method in brief: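 Wild-type enzyme at 0.2 nM final in 50mM citric acid/KH2PO4, 10mM sodium taurocholate, 0.01% tween-20, pH 5.9, with resorufin beta-D-glucopyranoside at 30 uM final. Compounds titrated, 20 min at RT, red fluorescence read; AC50 from titration.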
Potency is the fitted concentration of half-maximal effect.

Potency, inactive:
COC(=O)c1[nH]c(=O)c2ccccc2c1OCc1ccccc1 > 76.9 µM
O=C(CSc1nnc(-c2ccco2)o1)NC(=O)C1COc2ccccc2O1 (configuration not stated) > 76.9 µM
CCC(=O)N1CCc2cc(S(=O)(=O)N(CC)c3cccc(C)c3)ccc21 > 76.9 µM
O=C(Cn1cnc2c(nnn2Cc2ccc(F)cc2)c1=O)N1CCCCC1 > 76.9 µM
CC1=CC(C)C(/C=N/n2cnnc2)C(C)C1 (configuration not stated) > 76.9 µM
CCOc1cc2[nH]c(=S)n(CCCCC(=O)NCc3ccco3)c(=O)c2cc1OCC > 76.9 µM
N=c1c2c(-c3ccccc3)c(-c3ccccc3)oc2ncn1CCN1CCOCC1 > 76.9 µM
Cc1cnc(NC(=O)c2c(O)c3cccc4c3n(c2=O)CCC4)s1 > 76.9 µM
O=C(c1ccco1)N1CCN(C(=O)c2cc(-c3ccccn3)nc3ccc(Cl)cc23)CC1 > 76.9 µM
CC1CCN(C(=O)CSc2nncn2-c2ccccn2)CC1 > 76.9 µM
CC(C)Oc1cccc(-c2cc(C(=O)N3CCN(S(C)(=O)=O)CC3)c3ccccc3n2)c1 > 76.9 µM
CCOC(=O)CCc1c(C)c2ccc(OCc3nn[nH]n3)cc2oc1=O > 76.9 µM
Cc1ccc(S(=O)(=O)N(C)CC(=O)N2CCOCC2)cc1 > 76.9 µM
Cn1c(SCC(=O)N2CCN(Cc3ccccc3)CC2)nnc1-c1ccncc1 > 76.9 µM
CCc1nnc(NC(=O)C2CC(=O)N(Cc3ccco3)C2)s1 (configuration not stated) > 76.9 µM
Cc1ccc2c(c1)c1ncnc(N3CCc4ccccc4C3)c1n2C > 76.9 µM
CCOc1ccccc1-n1c(SCC(=O)N2CCCC2)nnc1-c1ccoc1C > 76.9 µM
C=CCN1CCN(C(CC(C)C)c2nnnn2CCOC)CC1 (configuration not stated) > 76.9 µM
N#Cc1cccc(-c2nnc(SCc3ccccc3C#N)o2)c1 > 76.9 µM
CS(=O)(=O)N(CC(=O)N1CCN(c2ccccc2F)CC1)c1ccc2c(c1)OCCO2 > 76.9 µM
O=c1c2ccccc2nc(SCc2nnc(-c3ccccc3Br)o2)n1Cc1ccco1 > 76.9 µM
Cc1nnc(SCCN2CCOCC2)n1C > 76.9 µM
O=C(Cc1cccs1)Nc1nnc(SCC(=O)N2CCCCC2)s1 > 76.9 µM
CC(=O)Nc1cccc(OCC(=O)NS(=O)(=O)c2ccc(Cl)cc2)c1 > 76.9 µM
COc1ccc(-c2ccc(S(=O)(=O)N3CCOCC3)cc2)cc1 > 76.9 µM
Cc1c(C(=O)OCC(=O)N2c3ccccc3CC2C)oc2ccccc12 (configuration not stated) > 76.9 µM
CCN(CC)S(=O)(=O)c1ccc2c(c1)c(=O)c(C(=O)N1CCOCC1)cn2C > 76.9 µM
Cc1cc(C)c2cc(C(c3nnnn3C3CCCC3)N3CCOCC3)c(=O)[nH]c2c1 (configuration not stated) > 76.9 µM
O=C(O)CNC(=O)c1ccc(OC(F)F)cc1 > 76.9 µM
CCOC(=O)c1c(C)c(C(=O)Nc2cc(F)ccc2F)c(C)n1C > 76.9 µM
Cn1c(=O)c2c(nc(SCC(=O)N3CCc4ccccc43)n2Cc2ccccc2)n(C)c1=O > 76.9 µM
Cc1c(N=Cc2ccc(-c3ccc(Cl)cc3)o2)c(=O)n(-c2ccccc2)n1C > 76.9 µM
COc1ccc(Cc2nnc(NC(=O)Cc3cccs3)s2)cc1OC > 76.9 µM
COc1ccccc1NC(=O)c1ccc(NC(=O)CSc2nnnn2C)cc1 > 76.9 µM
O=C(NC1CCCC1)C1CCCN1C(=O)Nc1ccccc1 (configuration not stated) > 76.9 µM
CCOC(=O)c1cnc(Nc2ccc(OCC)cc2)nc1C
Cc1c(C(=O)NCc2cccs2)oc2ccc(S(=O)(=O)N3CCOCC3)cc12 > 76.9 µM
COc1ccccc1NC(=O)N1CCCC1C(=O)Nc1nnc(C(C)C)s1 (configuration not stated) > 76.9 µM
Brc1cccc(-c2nnco2)c1 > 76.9 µM
C=CCNC(=O)NS(=O)(=O)c1ccc(C)cc1 > 76.9 µM
CCOC(=O)N1CCC(=C(C#N)C(=O)Nc2cc(OC)ccc2OC)CC1 > 76.9 µM
COC(=O)CSc1nnc2c(C)cc3cc4c(cc3n12)OCCO4 > 76.9 µM
CCn1c(CNC(=O)c2ccco2)nnc1SCC(=O)Nc1cc(C(F)(F)F)ccc1Cl > 76.9 µM
Cc1cc(C)nc(NC(=O)Cc2cccs2)n1 > 76.9 µM
Cc1ccc(C(=O)c2cncc(Br)c2)cc1 > 76.9 µM
O=C(NCc1ccccc1)NC1CC2CCC(C1)N2Cc1ccco1 (configuration not stated) > 76.9 µM
Clc1cccc(Nc2c3c(nc4ncnn24)CCC3)c1 > 76.9 µM
COc1ccc(CCn2c(=N)c(C(=O)NCc3ccco3)cc3c(=O)n4cccc(C)c4nc32)cc1 > 76.9 µM
Cn1c2ccccc2c2nnc(SCN3C(=O)c4ccccc4C3=O)nc21 > 76.9 µM
O=C(CSc1nc2c(c(=O)n1-c1ccc(F)cc1)SCC2)NCC1CCCO1 (configuration not stated) > 76.9 µM
COC(=O)c1ccccc1NC(=O)NCC1CCCO1 (configuration not stated) > 76.9 µM
C/C=C/COc1nc2c(c(=O)n(C)c(=O)n2C)n1C > 76.9 µM
c1ccc(Cn2nnc3c(NCc4ccc5c(c4)OCO5)nc(C4CC4)nc32)cc1 > 76.9 µM
O=C(NCc1ccco1)C(c1ccccc1F)N(CC1CCCO1)C(=O)Cn1nnc2ccccc21 (configuration not stated) > 76.9 µM
Cc1cc(C(=O)CSc2nn(-c3ccccc3)c(=S)s2)c(C)n1Cc1ccco1 > 76.9 µM
Cc1oc(-c2ccc(Cl)cc2)cc1-c1nn2c(-c3ccoc3C)nnc2s1 > 76.9 µM
Cc1cc(SCC(=O)N2CCCC2)nc2ccccc12 > 76.9 µM
